# In the supplement of paper PMC3334620:
# Over roughly 33,000 sequences, “E-score (-0.5 to 0.5)” has its median near -0.016; the highest 2% begin near 0.31. The list shows a part of the results.
# Target: Cst6 (UniProt P40535)
# Assay: PBM E-score (8-mer binding enrichment) (E-score (-0.5 to 0.5)); higher = stronger / more preferred TF binding; most listed sequences are background and not binding sites
# Settings: protein concentration: 200 nM; construct: GST-DNA-binding domain
# Procedure, shortened: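 For each ungapped eight-base word taken together with its reverse complement, the Universal PBM Analysis Suite assigned an E-score. Binding data came from GST-tagged yeast transcription factors, applied at about 100-200 nM, on universal all-10-mer Agilent arrays made double-stranded by primer extension. Fluorescent anti-GST marked bound protein, and scans were normalised with masliner.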
row,Sequence,PBM E-score
1,CCGCCTAA,-0.129
2,GCTGCCGA,-0.164
3,GTACTCTA,-0.034
4,ACAACGCT,0.049
5,AGTAGGTA,-0.0379
6,CTTTCGCC,-0.115
7,GAACACTC,-0.0006
8,GATCGAAA,0.172
9,GAAGATTC,0.0408
10,AAGAGTTC,-0.23
11,GAAAGTTC,-0.0721
12,ATAAGGTA,-0.0528
13,TCCTTCGA,-0.0595
14,ATACTAGC,-0.052
15,GATGACTA,0.171
16,CAATGTAC,-0.0829
17,GGATCAAC,0.0971
18,GATTTCCC,0.0776
19,CGGCTAAC,0.0272
20,ATTAGGAA,-0.0086
21,AACGTTAA,0.0396
22,AGCGGACT,-0.293
23,GAATGTAC,0.0611
24,CCCCATTA,-0.257
25,ATTTACAC,0.149

row,Sequence,PBM E-score
1,CCGGCCAG,-0.171
2,AGATCTTC,0.044
3,GATAGAAC,0.05
4,ATTGCTGA,0.165
5,ATCCGGAC,-0.148
6,CTGTAATA,0.108
7,ATAAAAAT,0.232
8,CCCGGGGA,-0.274
9,CTCGAGCC,-0.0674
10,AAGAACGC,0.145
11,ATTGGTTG,0.00462
12,CGCTATCA,-0.00554
13,GGATCGAA,-0.0656
14,CAACCGTA,-0.103
15,AAATAGCG,-0.0241
16,GACGCACC,0.159
17,CAAAACTA,0.225
18,AAGCTGCC,-0.0555
19,AATCCTCA,-0.0539
20,ACCTTGTA,0.0757
21,CACGAAAA,0.247
22,GATCCCTA,-0.19
23,GTCGGTGA,0.0771
24,AGGCCTAA,-0.109
25,AACTCCCA,-0.113

row,Sequence,PBM E-score
1,ACACCTTG,0.0381
2,CCCCTGTC,-0.35
3,CCGTTTTC,0.182
4,ATAATATG,0.273
5,AGGTCCGG,-0.309
6,ACAGAACG,-0.0258
7,AAGTCCGC,-0.214
8,CTCCGCTA,-0.154
9,GCTACCGA,-0.175
10,CGCCTGCC,-0.2
11,AGGATCCA,-0.258
12,AAGCTCAT,-0.181
13,CCTCACCC,0.0853
14,GCTCTCAC,-0.261
15,GCAAATCA,0.115
16,ATATCGTC,0.272
17,AACCTCTT,0.0883
18,AACGCTAC,-0.0658
19,ACGCTGCA,-0.118
20,CCGAGAAC,0.0646
21,GACGAAAC,0.199
22,ACATTCCC,-0.0534
23,AGTGTGGA,-0.0626
24,ATTCGACG,0.145
25,ATACCCAC,-0.183

row,Sequence,PBM E-score
1,TATTCAAA,0.162
2,AGGTTTGC,0.0906
3,ACTATGGC,-0.142
4,GGTGCGCA,0.0142
5,ACAGATGT,-0.0693
6,GCGCGCGA,0.0433
7,ACTTGGAG,-0.136
8,AGTCGACT,0.079
9,AAGCGGTA,-0.138
10,ACGCGAGG,0.0628
11,CCTCTATC,-0.187
12,AGTGTCAT,0.276
13,AAGATAAA,0.303
14,GCTTCACC,-0.143
15,CTCATCAG,0.167
16,AGGACCGA,-0.156
17,CAGCGTGA,0.0151
18,AGGATTTA,0.0361
19,ATGTTTAG,0.146
20,TCTCCCAA,0.015
21,CCACCGCA,-0.227
22,TACATTCA,0.0794
23,TACAGACA,0.174
24,GGTTTTAC,-0.184
25,CCTTCCGA,-0.149

row,Sequence,PBM E-score
1,TGACGACA,0.476
2,CCCGCGCA,-0.172
3,ACGCAAAA,0.191
4,CCCCTACA,-0.307
5,AGTTTCAT,0.132
6,GCAGCATA,-0.133
7,ATCCTCAG,-0.0631
8,CGCCTCGA,0.0753
9,AACAAAGC,0.249
10,ATCTTGTG,0.00381
11,AAGGAAGT,0.0426
12,CATAACCG,-0.0921
13,CCCCGGCC,-0.326
14,CAAATTTA,0.221
15,CATGCGAC,-0.0464
16,ACTCGTCC,-0.094
17,GAGCACAA,-0.0554
18,CCGCCGCC,-0.0332
19,GCAAGCAA,0.0462
20,AATTGGAG,-0.152
21,CTTCGAAG,-0.21
22,GATCGTGC,0.0187
23,GAAAAGCA,-0.0869
24,CACCAGAC,0.0878
25,AACGGTAG,-0.183

row,Sequence,PBM E-score
1,GCACTGGC,-0.193
2,ATGCTTAC,0.047
3,AGTATAAC,-0.0732
4,CGGAGTCA,-0.0501
5,CAGGGCCG,-0.137
6,ATTGCTGC,0.0873
7,CAACCCTC,-0.27
8,GGTTAACA,0.16
9,CCCGGCTA,-0.179
10,CTATTAAA,0.192
11,CCTGGCAC,-0.255
12,AATTAGTG,0.241
13,GAATCCCA,-0.0246
14,TCGTTCAA,0.0239
15,TATCCCGA,0.00184
16,CAGGTCTC,-0.254
17,CAAAAAGC,0.132
18,CGCGCGGC,0.378
19,ATCTTAAC,0.267
20,ATTGTCCA,0.0668
21,AGGTTTAG,-0.0746
22,AACAATTC,0.17
23,AGCATTCG,-0.105
24,ATCATAAC,0.239
25,GGATCTTA,-0.0569

row,Sequence,PBM E-score
1,CTAGAAGC,-0.191
2,CCAGTAGA,-0.112
3,ACAGATTA,-0.0146
4,AGGATGCC,0.0165
5,AGTAGAAC,-0.0674
6,ACCTTAGA,0.0287
7,AGAAGCTG,-0.0818
8,ATCGATTA,0.143
9,GCACTACA,-0.107
10,ACGTATCT,0.142
11,CCAATGCC,-0.183
12,AATGTTGG,0.114
13,GAAACCGC,0.0497
14,ATTTAACG,0.184
15,AAGGGCCT,-0.251
16,CGTAGCCC,-0.203
17,GAGCGTCC,-0.225
18,AATGGACG,0.154
19,AGAGTCGC,-0.036
20,ACTCCTAG,-0.202
21,ATGACACC,0.228
22,TCGGAACA,0.00799
23,GGGGCTGA,-0.23
24,CTGATGTC,0.287
25,ACTGAACC,-0.208

row,Sequence,PBM E-score
1,AACGGCGA,0.301
2,GGGCATCA,0.123
3,CGGTACAC,-0.126
4,GACTGATA,-0.143
5,AGCTCCGC,-0.265
6,ACTAACGC,-0.0588
7,AACAAGAC,0.0788
8,AATGGTGC,0.0118
9,AGGGGGGA,-0.325
10,ATTCTTCA,0.0478
11,CACTGGGA,-0.101
12,TAGTTCCA,0.0367
13,AATATCTG,0.046
14,TAAACAAA,0.207
15,CGGCTTGA,-0.0221
16,CAACGCCC,-0.166
17,CTACAATC,0.118
18,CCGACAGG,-0.152
19,ATCGCGTG,0.0786
20,CAATACAG,-0.0247
21,CTTTGGAA,0.0614
22,CGGATATA,0.201
23,CGCTGCTC,-0.267
24,CCTTAATC,-0.119
25,AAATTCGC,0.211

row,Sequence,PBM E-score
1,CAGGGCCC,-0.335
2,CGTATTTA,0.358
3,AGGCTACA,-0.146
4,ACTCTCAA,-0.0131
5,AAGGTTAG,-0.0685
6,CGATCAGC,-0.0539
7,GGCCAGTA,-0.0588
8,AGATCCCG,-0.0994
9,CACCTCTA,0.0369
10,CTGTTAAC,0.235
11,CCTTACCA,-0.119
12,CCAGCACC,-0.316
13,ACTTAAAG,-0.0617
14,AATGTTAT,0.0813
15,ACCACCCC,-0.294
16,CACGTGCA,-0.0386
17,CTTAGCAA,-0.0618
18,ACTGATTC,0.128
19,GAAATTCA,0.193
20,AACCTATG,0.0657
21,AGCTTAAA,-0.0393
22,CGGTAAGC,-0.169
23,CCGCAAGC,-0.17
24,GTCGCGAC,0.191
25,GGACCTCA,-0.137

row,Sequence,PBM E-score
1,GCTTCAAA,-0.0353
2,ATGAGGGC,-0.185
3,AGAACATC,-0.0776
4,AATGTGCG,0.16
5,ACAAAGGC,-0.00565
6,AACGTGCC,0.0635
7,GGCACTGA,0.14
8,AGCTTCTG,-0.23
9,CTAACTTC,0.1
10,CACCCGCA,-0.105
11,AACAACAT,0.0753
12,GCGCTTAC,0.0667
13,AGTGTAGG,-0.0607
14,ACTCAAGT,-0.053
15,GGGCTACA,-0.136
16,TGCGGACA,0.196
17,CACAGAGC,0.0246
18,AGATTTTG,0.121
19,GACATAAC,0.219
20,TAAACCCA,0.0469
21,CTTATCGA,0.0824
22,AGCTCCAT,-0.081
23,GGTATATA,0.251
24,ACACTATA,0.133
25,CATGAGGC,-0.0607

row,Sequence,PBM E-score
1,GTCTATAA,0.102
2,ATCAACAG,0.179
3,AGATAGAA,-0.042
4,ACAGGGAC,-0.15
5,CTCCGTGC,-0.107
6,GCTTCTGA,-0.0301
7,AGACATGA,0.0915
8,GGAACTTA,0.0321
9,AAGAGCGT,-0.0143
10,ATTCACAC,0.134
11,GCTACGCA,-0.0483
12,GCGATGCC,-0.135
13,GTGAGCAA,-0.0428
14,CCTAGGAC,-0.286
15,GAGTCAGC,-0.0801
16,CCCCTCAC,-0.128
17,ACAAATCG,0.0465
18,AAGATAGG,-0.037
19,AGCATATG,-0.166
20,ATTGGGGC,-0.109
21,AAGGCCCG,-0.255
22,ATTGACTG,0.0299
23,TTATACAA,0.244
24,ATTTTCGG,0.0362
25,CCGGGACG,-0.255

row,Sequence,PBM E-score
1,CATCTCCA,-0.0317
2,ACGAACAT,0.102
3,CGCTGTAA,0.101
4,ACACATTG,0.0817
5,CTTCTGGA,-0.161
6,AGAATTCA,0.0373
7,TGCTTCCA,-0.0816
8,AGGGCCAG,-0.312
9,ACTGCAGT,-0.072
10,GGCCTCCC,-0.283
11,ACTCCCAT,-0.0198
12,CATCCGAC,-0.0588
13,ACAGGATG,-0.00772
14,ACAGGAGA,-0.0136
15,ACTCCCAG,-0.205
16,TGGGAGAA,-0.157
17,ATCAGCCG,0.0405
18,ACATCCGC,0.153
19,AGCCCTAC,-0.0362
20,GTGTTGCA,0.0681
21,CAATAGCG,-0.0881
22,CTATTAAC,0.121
23,GGGATTAA,-0.177
24,ATAAGGAA,-0.038
25,GTCATCTA,0.368

row,Sequence,PBM E-score
1,GACATGCC,-0.0278
2,AGAAATCT,0.161
3,ACCGCTGC,-0.223
4,CATTGTAA,0.0849
5,CATCATGA,0.363
6,ACGACTCC,-0.181
7,AACCGCAG,-0.16
8,CCTAACGC,0.0556
9,CATCAGTA,0.164
10,AGCTGAAT,0.0198
11,AACCGAGG,-0.209
12,CGTTCCTC,-0.142
13,CACTGTTA,0.0044
14,CCCCGCCG,-0.199
15,GAGTTGTA,0.0413
16,CATTAACA,0.137
17,CGACTGAG,-0.218
18,AGTGGAAT,-0.0194
19,ATAACTTA,0.22
20,AAATTGTT,0.227
21,CCACGCAC,0.0591
22,ATATGGTC,-0.0011
23,ATCTGCCA,-0.149
24,CTCGCTTA,0.0386
25,CTGACCTA,-0.0164

row,Sequence,PBM E-score
1,GGAGGGCC,-0.309
2,ACCACACA,0.0846
3,ACAGCTGC,-0.0617
4,ATAACCTG,-0.122
5,ATGATTGA,0.182
6,AAGTCGCA,0.022
7,CCATAAGC,-0.214
8,AGACGGCA,0.191
9,ATGGCGCC,0.0258
10,AATCGCGA,0.0502
11,TATGTCAA,0.378
12,CCGATCCG,-0.0955
13,ATACCTCG,-0.0186
14,CCTATCGC,-0.109
15,AAGCGGGC,-0.316
16,GATTGACA,0.123
17,AGGGTCTG,-0.333
18,AGTCTAAT,0.063
19,CAGACCAG,-0.181
